Assay results reported in the supplement of paper PMC3334620.
Over roughly 33,000 sequences, “E-score (-0.5 to 0.5)” has its median near -0.011; the highest 2% begin near 0.28. The list shows a part of the results.

target: T1, Gcr1 (UniProt P07261); assay: PBM E-score (8-mer binding enrichment) (E-score (-0.5 to 0.5)); higher = stronger / more preferred TF binding; most listed sequences are background and not binding sites; conditions: protein concentration: 100 nM; construct: GST-full length
T1 sequence: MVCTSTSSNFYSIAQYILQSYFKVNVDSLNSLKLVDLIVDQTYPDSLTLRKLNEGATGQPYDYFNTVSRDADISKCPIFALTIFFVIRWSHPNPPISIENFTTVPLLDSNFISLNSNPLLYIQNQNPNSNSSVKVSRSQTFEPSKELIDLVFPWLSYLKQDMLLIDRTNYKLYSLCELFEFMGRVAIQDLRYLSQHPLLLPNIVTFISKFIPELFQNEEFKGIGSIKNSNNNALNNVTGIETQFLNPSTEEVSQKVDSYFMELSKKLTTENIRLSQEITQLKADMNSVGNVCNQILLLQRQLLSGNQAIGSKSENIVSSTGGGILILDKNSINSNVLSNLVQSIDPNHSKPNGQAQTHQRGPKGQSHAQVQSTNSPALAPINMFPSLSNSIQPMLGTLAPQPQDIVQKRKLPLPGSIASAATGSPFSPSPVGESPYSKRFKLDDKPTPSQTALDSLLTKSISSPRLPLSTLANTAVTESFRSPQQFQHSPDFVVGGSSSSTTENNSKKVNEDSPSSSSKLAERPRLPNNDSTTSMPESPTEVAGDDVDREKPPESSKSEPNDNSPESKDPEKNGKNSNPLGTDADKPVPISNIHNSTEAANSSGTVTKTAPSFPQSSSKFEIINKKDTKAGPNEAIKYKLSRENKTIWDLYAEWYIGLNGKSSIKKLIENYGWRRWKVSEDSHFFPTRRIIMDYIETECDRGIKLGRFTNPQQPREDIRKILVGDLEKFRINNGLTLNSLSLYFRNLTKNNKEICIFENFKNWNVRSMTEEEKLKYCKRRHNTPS
Summary of the method: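 Bound GST-tagged yeast transcription factors, applied at about 100-200 nM to double-stranded universal all-10-mer Agilent arrays, were detected with fluorescent anti-GST. Scans were normalised with masliner. A modified Wilcoxon-Mann-Whitney statistic, the E-score, was assigned to each ungapped eight-base word pooled with its reverse complement by the Universal PBM Analysis Suite.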

Point of comparison: ACTTGACA, “PBM E-score” value -0.2. Against it:
- CGTAACAA — higher, -0.0297
- ACGAGTCG — higher, -0.0432
- CGAAGGAG — higher, 0.0769
- ATAAACTA — higher, 0.128
- TTGACCAA — higher, 0.0136
- ACAACCTA — higher, -0.024
- ACATGGCC — higher, -0.138
- ACATAGCT — lower, -0.233
- ATTCTGTC — higher, -0.124
- CGCTTTAA — higher, -0.0365
- AATGTCAC — higher, 0.00273
- GTCTCTGA — higher, -0.0671
- AAGCCCCT — higher, 0.0409
- ATATTGAC — higher, -0.171
- GTAATACA — higher, 0.0624
- ACCATTAG — higher, -0.0532
- TCACTTAA — higher, -0.0203
- GCACATGA — higher, -0.102
- CCCGGTCA — higher, -0.0625
- GGAATACC — higher, 0.161
- AGAAAACC — higher, -0.0435
- GCTATTAA — higher, 0.0943
- GTTGTCAA — higher, -0.187
- CTCTTTAC — higher, 0.161
- GACGCGGC — higher, 0.253
- CAAGCGGC — higher, 0.165
- ACTACGGC — higher, 0.0786
- CGACGTTA — higher, 0.0113
- AATGTTTC — higher, 0.165
- ACACAACA — higher, -0.0843
- ACAGGTAA — higher, 0.0538
- AATGGATG — higher, 0.134
- AGACTTAC — lower, -0.342
- ATGCTCCG — lower, -0.254
- ACCACCCA — higher, 0.0425
- AATTTGGT — higher, 0.253
- AAGAGTGC — higher, -0.0487
- ACAAGTAT — higher, 0.125
- AGTGGTAT — higher, 0.247
- AATCGCCA — higher, -0.0127
- TCCCGAAA — higher, 0.252
- TCAAGGAA — higher, 0.0158
- GTTCTGGA — higher, -0.00188
- ATTATTTG — higher, 0.107
- ACCTTTCG — higher, -0.093
- CTCCAGCC — higher, -0.183
- CTCGTCCC — lower, -0.355
- CGATTGGC — higher, -0.146
- ATCACCCG — higher, -0.192
- GATATAAC — higher, -0.0751
- GTGGGGGA — higher, 0.0931
- CTTCCCAA — higher, 0.232
- ATCCTTAA — higher, 0.115
- GGAGTCTA — higher, 0.0222
- TCTCCTCA — higher, -0.0534
- AAGTAAGC — lower, -0.217
- CCGAGGTC — higher, -0.104
- TACGAGTA — higher, -0.0401
- ATATCTCA — higher, -0.0917
- GAGGCTGA — higher, -0.0331
- GGCGAGTA — higher, -0.113
- GTGACTAA — higher, -0.0152
- GCCTAAGA — higher, -0.106
- GAGTCCGA — higher, 0.158
- ACCCACGA — higher, 0.0759
- GTGGCCAA — higher, -0.0719
- GGCCTTTA — higher, -0.0866
- GATGGGGA — higher, 0.0681
- GAAGTAGC — higher, 0.257
- AACCACAT — higher, 0.0672
- CGCTAGGA — higher, -0.171
- CCTTAAGG — higher, -0.142
- CGCATACG — higher, 0.00348
- GGGTTGAA — higher, -0.147
- ATCAGTCC — lower, -0.24
- ACCTGCGT — higher, -0.0862
- ACAAAATC — higher, 0.101
- ACTTGATG — higher, -0.0626
- CGAGTAGA — higher, -0.0365
- ACAAAAGT — higher, 0.00185
- TAAAGGCA — higher, -0.0171
- AAGGGACG — higher, -0.058
- CAAAGCCG — higher, -0.0561
- GGGAATCA — higher, 0.0161
- AACTAATA — higher, 0.187
- CCAGGTAA — higher, -0.0543
- ACGTATCA — higher, -0.14
- CCGTGTCC — higher, -0.0187
- CAGCAGAC — higher, -0.0985
- CGGAGAAA — higher, -0.106
- AACCTGCC — lower, -0.202
- CCAGGTAC — higher, 0.052
- GCACATAA — higher, -0.0767
- CCCCTTCG — higher, 0.045
- CAGCGCCG — higher, 0.205
- CAAAGTCC — higher, -0.011
- GCCTAACC — higher, -0.0444
- TATGTGAA — higher, 0.0626
- GTTGGCAA — higher, 0.0265
- AGATCAAG — higher, 0.0772
- AAGGTTCG — higher, -0.134
- TAGAGTAA — higher, -0.164
- TCCGTTAA — higher, -0.00183
- CTTATGTC — higher, 0.00662
- TAGGTTAA — higher, -0.0257
- CAACCGCC — higher, -0.0499
- GGGACAAA — higher, -0.0353
- CTCCAGAC — higher, 0.122
- CGGTTCCC — higher, 0.161
- ACTATTCA — higher, 0.103
- CGGTGCAC — higher, -0.105
- CTATAGCC — higher, -0.191
- CCGTATAC — higher, 0.173
- CCGAGACA — lower, -0.263
- CATGGCCC — lower, -0.201
- ATCCGGTG — higher, 0.228
- AAGCGCTT — higher, -0.0906
- CTAATTAG — higher, 0.165
- AGGGGCCC — higher, 0.21
- GCACAAGC — higher, -0.149
- CACGATCC — higher, 0.155
- CCGAAGGA — higher, -0.084
- ATTCAGAA — higher, 0.108
- AGAGCTAC — higher, -0.0587
- CGGCACTC — higher, -0.187
- AGCGGATG — higher, 0.138
- ATACACGG — higher, -0.0418
- GACAACCC — higher, 0.0322
- GACTTTCA — higher, 0.0748
- AAATGATA — higher, 0.0389
- ATGTAAAT — higher, 0.116
- TGATAGCA — higher, 0.183
- CTGTCCGC — higher, -0.0662
- CTGGTAGA — higher, 0.113
- CGTTGTTC — higher, -0.113
- CAAGTAAA — higher, 0.0412
- CGTGCTAC — higher, 0.0665
- ACCTGGTC — higher, -0.175
- TCTCGCCA — lower, -0.258
- GACCACGC — higher, -0.136
- CCACACGC — higher, 0.209
- ATCTGCCG — higher, 0.0926
- ACAATTTC — higher, 0.00093
- CATTCGGA — higher, 0.00656
- CCATCCAA — higher, -0.121
- CGGGGTAA — higher, 0.0976
- GTGAATTA — higher, 0.0532
- ACCCCCAG — higher, -0.0743
- CCAACTTC — higher, 0.216
- GACCAGTA — higher, -0.00358
- ATATGGTG — higher, 0.227
- CTCTGTAA — higher, 0.0466
- GCTTCCGA — higher, 0.386
- CGTAACAC — higher, -0.101
- ACAGGCCT — higher, 0.0209
- GGGTGGTA — higher, 0.0454
- CGTTGAAC — lower, -0.256
- AGCGATAA — higher, -0.02
- ACAGAGGT — higher, 0.0543
- AGCTTCCA — higher, 0.458
- CTTAGAGC — higher, -0.0182
- ACCTTCTA — higher, 0.134
- GCCCCATA — higher, -0.0303
- GGAGGCCA — higher, 0.128
- GAGCAATC — lower, -0.286
- AGAGGCAA — higher, -0.125
- CAACGGTC — lower, -0.339
- AGAGGCGA — higher, -0.139
- ACACGTAC — higher, 0.042
- CATTCTAG — higher, 0.111
- GGGCTAAA — higher, 0.00675
